The other results are listed elsewhere or left out.

This assay has as its target T1, OsWOX13 (Oryza sativa, UniProt Q5QMM3 1-267).
T1 sequence: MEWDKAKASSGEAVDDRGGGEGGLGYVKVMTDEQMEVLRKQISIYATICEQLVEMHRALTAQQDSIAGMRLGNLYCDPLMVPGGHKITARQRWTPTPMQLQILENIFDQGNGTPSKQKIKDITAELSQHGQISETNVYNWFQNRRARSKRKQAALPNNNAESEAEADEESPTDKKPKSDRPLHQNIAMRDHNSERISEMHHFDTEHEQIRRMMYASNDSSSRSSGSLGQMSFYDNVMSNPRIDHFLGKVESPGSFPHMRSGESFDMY
In words: protein-binding microarray (RPBM); PBS, 2% BSA, 51.3 ng/ul salmon testes DNA, 50 uM zinc acetate, 200 nM TF, 25 C, 1 h; high values mean tight binding. Particulars: protein: recombinant; tags: N-terminal polyhistidine and DsRed monomer fusion (pET32a); label: CyDye5-dUTP incorporated in the synthesized complementary strand; 3' TTTTT single-stranded linker to array surface; dsDNA, one strand shown. Put shortly:
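Transcription factors were made in E. coli BL21-CodonPlus as N-terminal fusions to a polyhistidine tag and DsRed, then purified on Ni–NTA. After primer extension with Cy5-dUTP and blocking with 2% BSA, a custom Agilent array was exposed for 1 h at 25 °C to 200 nM protein in PBS, 2% BSA, salmon testes DNA and 50 µM zinc acetate. Washed arrays were scanned on an Axon 4000B, and the binding signal is per-feature fluorescence intensity in arbitrary units.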
With “TGTGCTTAACCGCGAAATTTAGTCAATTGTTAAAGAATGGCGGAGTCACCTAGTGCAG”, the binding signal was 3790 fluorescence intensity (a.u.).

With “TAATTTAATTTAATTACCTCCCTAATCACTCTCGCTCGCTCGGAGTCACCTAGTGCAG”, the binding signal is 46200 fluorescence intensity (a.u.).

Consider “GAATTCAATTTCTAGATTTGACACTATGCTCGCTTCGCGTCGGAGTCACCTAGTGCAG”, for which the binding signal is 3640 fluorescence intensity (a.u.).

Take “AAAACAAAATTGGAAAGAATTTTGTTGGAAACCAATGGCTCGGAGTCACCTAGTGCAG”: the binding signal is 5540 fluorescence intensity (a.u.).

In the case of “ACTAATTAATGGGTGTTTCATTACGACAACGGCGGCGGCCCGGAGTCACCTAGTGCAG”, the binding signal was 26200 fluorescence intensity (a.u.).

For the sequence “GGATTATTTCGTGATTGTAGGAACCTGCAGAGCACCTTCCCGGAGTCACCTAGTGCAG”, the binding signal is 5170 fluorescence intensity (a.u.).

As for “CTTTGTCTTTGTTTCTTGTTGATTGCAGGATCAAATCAACCGGAGTCACCTAGTGCAG”, the binding signal is 5330 fluorescence intensity (a.u.).

With “ATTACAAAGTTAGTTAATTTATCATTTCTGCTAGTCAACACGGAGTCACCTAGTGCAG”, the binding signal is 3710 fluorescence intensity (a.u.).

“AAAATTGATCAATTTGGGTCAAGATCGAATAAGTGAAGCCCGGAGTCACCTAGTGCAG”: the binding signal is 43500 fluorescence intensity (a.u.).

Consider “TATCACCTTAATTAATTATTGGAAGTAGAAGCGATAGGGTCGGAGTCACCTAGTGCAG”, for which the binding signal was 19900 fluorescence intensity (a.u.).

As to “AGTGACAATCACGTCTTCATAGTTGTGTCATCTTATGGAGCGGAGTCACCTAGTGCAG”, the binding signal is 8490 fluorescence intensity (a.u.).

Turning to “TTAGATAATGGAATATACACGGATGCTCTTGTGTTCTTGTCGGAGTCACCTAGTGCAG”, the binding signal was 7550 fluorescence intensity (a.u.).

On to “GAAAATTGGACTGAGTGACAACTTGAGGAGCTAAAGTGAACGGAGTCACCTAGTGCAG”, for which the binding signal is 13600 fluorescence intensity (a.u.).

With “AAAGATTAATATATGTGATGCATTATGAAGATAGCATAATCGGAGTCACCTAGTGCAG”, the binding signal was 6480 fluorescence intensity (a.u.).

With “TATTATTGATTTTGAAGTAAAATAAATTTACTTAACCCAACGGAGTCACCTAGTGCAG”, the binding signal is 11500 fluorescence intensity (a.u.).

Regarding “AATATATAATAGATAGATAGATTTCTAACGACTTCTTTTGCGGAGTCACCTAGTGCAG”, the binding signal was 22700 fluorescence intensity (a.u.).

In the case of “CCAAAATGGATTTGCTATTACACTTGTCAATTCTCCCTTGCGGAGTCACCTAGTGCAG”, the binding signal is 8530 fluorescence intensity (a.u.).

As for “CTAGATTATTTTAATCTATAAGCTAGATTACTATAATCCACGGAGTCACCTAGTGCAG”, the binding signal was 15200 fluorescence intensity (a.u.).

As to “GACAGTAATCCGTTAAACTCAATTATTGGCACTCTGCTAGCGGAGTCACCTAGTGCAG”, the binding signal is 6120 fluorescence intensity (a.u.).

For the sequence “TATAAAATAATTTTATATAAGACAGACAATTAAAGTTGGACGGAGTCACCTAGTGCAG”, the binding signal was 3660 fluorescence intensity (a.u.).

For the sequence “CGTCTAATTATAAATCATAACACATTATTCGTAAAATAATCGGAGTCACCTAGTGCAG”, the binding signal was 15000 fluorescence intensity (a.u.).

As for “TTAATTAAACCAATTTAATATTTTATATGTTGTTAAATTTCGGAGTCACCTAGTGCAG”, the binding signal was 8440 fluorescence intensity (a.u.).

As for “CTGTTAATGAGATGGCAGATCATGTAGATGCCCCTCCTTTCGGAGTCACCTAGTGCAG”, the binding signal was 5520 fluorescence intensity (a.u.).

For “TTGATTGGGTCTGTGGTGGAACAGGACGATCATACATCACCGGAGTCACCTAGTGCAG”, the binding signal is 21000 fluorescence intensity (a.u.).

With “GCAGGATTGTAATTGCACGTGAATAGCGGCATAGCCCCACCGGAGTCACCTAGTGCAG”, the binding signal is 12100 fluorescence intensity (a.u.).

For “CATTCCAATCACCTCGGCGAGATCAGTCCAAACTCCAAAGCGGAGTCACCTAGTGCAG”, the binding signal was 14200 fluorescence intensity (a.u.).

Take “TTCCTGAAATTTGACACAAAACTGAATTTCAGGCCCATGACGGAGTCACCTAGTGCAG”: the binding signal is 6020 fluorescence intensity (a.u.).

With “CACTTAACTGAACACTTACTTCTCGGTGACAAGTGAAATGCGGAGTCACCTAGTGCAG”, the binding signal is 10800 fluorescence intensity (a.u.).

Turning to “TTGATTCTTTCGGTGATTTAAAAGGATAGTTTCGCTAACGCGGAGTCACCTAGTGCAG”, the binding signal was 4540 fluorescence intensity (a.u.).

As for “ACTGCAATGTAAATTGAATGTAACTTTTATATAATTTTAACGGAGTCACCTAGTGCAG”, the binding signal is 4080 fluorescence intensity (a.u.).

As to “GACAAATGATCTTAATCAAATAATTACTAACTATATGTCTCGGAGTCACCTAGTGCAG”, the binding signal is 13500 fluorescence intensity (a.u.).

With “GTAATTTTAGAATCTAGATGATTAAAGATCTTAGATAAATCGGAGTCACCTAGTGCAG”, the binding signal is 3620 fluorescence intensity (a.u.).

As for “ATACAAATAACCTTAATTAATTGTGTTAATTCTGTACACACGGAGTCACCTAGTGCAG”, the binding signal was 20400 fluorescence intensity (a.u.).

As for “GGGTGATTGAATCCTTGTCATCTAGTGTAAGGCATCTTTCCGGAGTCACCTAGTGCAG”, the binding signal was 36400 fluorescence intensity (a.u.).

Consider “ACATGGGAATTTTGGTGGGATGGGGATGGGGATGGGGAATCGGAGTCACCTAGTGCAG”, for which the binding signal was 7450 fluorescence intensity (a.u.).

For the sequence “ATTGACATAGGAGTGTGATTTACTTTCCTAGAGATATAATCGGAGTCACCTAGTGCAG”, the binding signal was 8960 fluorescence intensity (a.u.).

In the case of “TTTAATTTTGAGAATTTCTATGGCATCAAAAGGATTGCATCGGAGTCACCTAGTGCAG”, the binding signal was 5880 fluorescence intensity (a.u.).

For “CGTAGACTAATAACAAAACAAATTACAGATTCCGTCTGTACGGAGTCACCTAGTGCAG”, the binding signal is 6750 fluorescence intensity (a.u.).

Regarding “CAAGTTTGATTGAGTCAATGGTTTTATGGGCTCGTGGCCTCGGAGTCACCTAGTGCAG”, the binding signal is 45200 fluorescence intensity (a.u.).

As for “CGAAGAGGCCAGCTGATTGACTCTACACTCGGGTTGCGGTCGGAGTCACCTAGTGCAG”, the binding signal was 29400 fluorescence intensity (a.u.).

On to “AGTTTTCTGTTCAATGATTTGGTTGAATCAAATTGTTCCTCGGAGTCACCTAGTGCAG”, for which the binding signal was 4400 fluorescence intensity (a.u.).

With “GAAAATTGAGAAACCATGGAGACCGCGCATCTAGCCTACGCGGAGTCACCTAGTGCAG”, the binding signal was 16900 fluorescence intensity (a.u.).

(Values after article PMC7819943, “Rice protein-binding microarrays: a tool to detect cis-acting elements near promoter regions in rice”.)
